Laboratory results from the supplement of paper PMC3334620.
Whole data set: some 33,000 sequences, median “E-score (-0.5 to 0.5)” near -0.041, cut for the highest 2% near 0.37. The list shows a part of the results.

target: T1, Ecm22 (UniProt Q05958); test: PBM E-score (8-mer binding enrichment) (E-score (-0.5 to 0.5)); higher = stronger / more preferred TF binding; most listed sequences are background and not binding sites; settings: protein concentration: 200 nM; construct: GST-full length
T1 sequence: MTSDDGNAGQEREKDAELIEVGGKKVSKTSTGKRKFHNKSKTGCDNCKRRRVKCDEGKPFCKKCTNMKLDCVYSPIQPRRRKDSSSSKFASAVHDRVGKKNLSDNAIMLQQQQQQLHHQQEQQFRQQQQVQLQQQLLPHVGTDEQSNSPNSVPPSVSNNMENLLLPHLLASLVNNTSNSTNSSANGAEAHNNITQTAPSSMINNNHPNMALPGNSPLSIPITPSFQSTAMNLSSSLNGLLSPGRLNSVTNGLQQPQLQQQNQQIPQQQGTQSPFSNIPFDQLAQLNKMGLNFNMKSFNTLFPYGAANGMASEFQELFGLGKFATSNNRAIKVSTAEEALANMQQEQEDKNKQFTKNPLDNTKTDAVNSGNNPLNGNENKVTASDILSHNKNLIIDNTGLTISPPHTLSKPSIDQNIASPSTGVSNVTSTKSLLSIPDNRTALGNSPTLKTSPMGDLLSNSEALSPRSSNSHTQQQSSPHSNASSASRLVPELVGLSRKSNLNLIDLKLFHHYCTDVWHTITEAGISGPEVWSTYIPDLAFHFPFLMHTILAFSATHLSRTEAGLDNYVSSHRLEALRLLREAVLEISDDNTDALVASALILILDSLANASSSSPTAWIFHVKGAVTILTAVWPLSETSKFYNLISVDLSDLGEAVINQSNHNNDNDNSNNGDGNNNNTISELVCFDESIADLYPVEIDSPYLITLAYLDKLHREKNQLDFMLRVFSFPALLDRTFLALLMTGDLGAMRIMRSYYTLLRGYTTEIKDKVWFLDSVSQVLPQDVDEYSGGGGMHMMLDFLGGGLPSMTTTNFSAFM
Method in brief: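 Masliner-normalised scans of fluorescent anti-GST signal were the basis for scoring. That signal came from GST-tagged yeast transcription factors applied at about 100-200 nM to double-stranded universal all-10-mer Agilent arrays on fresh or once-stripped slides. Each ungapped eight-base word, pooled with its reverse complement, received an E-score from the Universal PBM Analysis Suite.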

Sequence | PBM E-score
ACTGGGAA | -0.106
AAGTTATG | -0.0511
ATCTACGA | 0.304
CAACCAGG | -0.193
TACGACCA | 0.449
AGAGCACA | -0.154
ACCTATAT | 0.184
AATCGCTC | 0.0687
CCGGTAGA | -0.0124
CAAGCGAG | 0.302
CATCCCCA | -0.246
GCATAGAA | -0.0745
AATAGAGA | -0.0831
ACGAACGG | 0.392
ACGTCTCG | 0.292
GTGGAGTA | 0.0107
CATTAATA | 0.0103
ACCCAGTA | -0.111
AACCGTGG | -0.277
CCGCGCGC | 0.0774
CTGCTGCC | -0.217
ATCTCTTA | 0.196
GGTAGACA | -0.207
AGAGTCCC | -0.189

Sequence | PBM E-score
ATGTGCAC | -0.204
AAGCAGCT | -0.112
AAAGAGTC | -0.109
ATTTACAG | -0.0365
AAGTGTCT | -0.0703
ACAGATTC | -0.121
GCACCGCA | 0.0935
GTACATAA | 0.145
AGGTGAAG | -0.0236
TGTCGACA | 0.00949
GCCGCCCC | -0.14
AAGGAATT | -0.126
ACTGCAGC | -0.108
ATCGGCAA | -0.0457
ACCGCCAC | -0.0833
CATCAGCC | -0.121
AACGCGGG | 0.171
AATGAAAC | -2e-05
CACCGAGG | 0.0851
GATCAAGA | -0.0614
ACCCTGGG | -0.0333
ACCTCCTG | -0.15
AAACTCGG | 0.161
TACCTTCA | 0.0669

Sequence | PBM E-score
GCGATCCA | 0.226
AGACGCCA | -0.132
CCAGCCAG | -0.247
AGATATTA | 0.204
AGGCTATA | -0.169
GGACTGGA | -0.323
TAAGAGTA | 0.0107
CTGCATTA | -0.0864
CCAGAGGC | -0.124
CATGATCA | -0.0879
CGACGCCC | 0.164
CCGCTTAA | 0.291
ACCTGGGG | -0.237
AGTGCATA | 0.148
ATCTCCCC | -0.143
ACAAATTA | 0.0865
ATGGGTCA | -0.171
CCATCCCA | -0.287
AATGTGTC | -0.0434
TGACACAA | -0.188
CGTTCTCA | 0.254
CCCTTAGA | -0.23
CAACCATC | -0.0236
GGTTCGAC | 0.0422

Sequence | PBM E-score
AACGGGCC | 0.101
CAGAGAGC | -0.179
ACTACGCA | -0.15
AGAATTAC | 0.209
GCTAGAAA | -0.138
CCAGACCA | -0.173
CTCACACA | -0.12
GAATGTCA | -0.221
AAGAATTG | 0.077
GATGCGCC | -0.163
CAACTGGA | -0.256
CTATGCAC | -0.164
GACACACC | -0.0167
TGAGCCAA | -0.169
ATGGGAGC | 0.0541
TAGCCATA | 0.0728
ACGCTAGC | -0.199
ATTTTTGC | 0.131
GCGTGAGA | -0.0852
ATTGTCGG | 0.181
AACCTTTC | -0.0282
CGGAAAAG | 0.169
